Experiment [1] concerns the target NEDD4, endogenous in HK-2 cells (human (endogenous in HK-2)) (UniProt P46934). The experiment can be described thus: condition: only UBE2m KO HK-2 cells with the vector alone; proximity ligation; Duolink PLA on UBE2m KO HK-2 cells with only the vector introduced.
For experiment [2] the target is unchanged. As to the kind of experiment: proximity ligation; Duolink PLA on UBE2m KO HK-2 cells with UBE2m WT reintroduced.
Experiment [3] shares this target. As to the kind of experiment: proximity ligation; Duolink In Situ Red kit on fixed HK-2 cells, control and COM-treated.
For experiment [4], the target named is Ubiquitin-conjugating enzyme E2M (UBE2m), endogenous in HK-2 cells (human (endogenous in HK-2)) (UniProt P61081). The experiment can be described thus: co-IP; endogenous proteins, lysates of COM-treated HK-2 cells; IP antibody overnight at 4 °C, protein A/G magnetic beads; IgG as negative control; both directions.
Experiment [5] concerns the target Recombinant human GST-PRMT1 (human) (UniProt Q99873). As to the kind of experiment: pull-down; GST-PRMT1 or GST mixed with His-UBE2m overnight at 4 °C, then GST beads 3 h at 4 °C; immunoblot with GST and His antibodies; both purified. For orientation: Immunoblotting shows a protein as a band on a membrane.
For experiment [6], the target named is Protein arginine methyltransferase 1 (PRMT1), endogenous in HK-2 cells (human (endogenous in HK-2)) (UniProt Q99873). As to the kind of experiment: co-IP; endogenous proteins, lysates of COM-treated HK-2 cells; IP antibody overnight at 4 °C, protein A/G magnetic beads; IgG as negative control; both directions.
Experiment [7] shares this target. The experiment can be described thus: proximity ligation; Duolink In Situ Red kit on fixed HK-2 cells, control and COM-treated.

Amino acid sequences for entries named in this document (tags omitted). A change or cut given only in a name is not applied to a line headed by its entry. Residues count along the entry.
UniProt P46934: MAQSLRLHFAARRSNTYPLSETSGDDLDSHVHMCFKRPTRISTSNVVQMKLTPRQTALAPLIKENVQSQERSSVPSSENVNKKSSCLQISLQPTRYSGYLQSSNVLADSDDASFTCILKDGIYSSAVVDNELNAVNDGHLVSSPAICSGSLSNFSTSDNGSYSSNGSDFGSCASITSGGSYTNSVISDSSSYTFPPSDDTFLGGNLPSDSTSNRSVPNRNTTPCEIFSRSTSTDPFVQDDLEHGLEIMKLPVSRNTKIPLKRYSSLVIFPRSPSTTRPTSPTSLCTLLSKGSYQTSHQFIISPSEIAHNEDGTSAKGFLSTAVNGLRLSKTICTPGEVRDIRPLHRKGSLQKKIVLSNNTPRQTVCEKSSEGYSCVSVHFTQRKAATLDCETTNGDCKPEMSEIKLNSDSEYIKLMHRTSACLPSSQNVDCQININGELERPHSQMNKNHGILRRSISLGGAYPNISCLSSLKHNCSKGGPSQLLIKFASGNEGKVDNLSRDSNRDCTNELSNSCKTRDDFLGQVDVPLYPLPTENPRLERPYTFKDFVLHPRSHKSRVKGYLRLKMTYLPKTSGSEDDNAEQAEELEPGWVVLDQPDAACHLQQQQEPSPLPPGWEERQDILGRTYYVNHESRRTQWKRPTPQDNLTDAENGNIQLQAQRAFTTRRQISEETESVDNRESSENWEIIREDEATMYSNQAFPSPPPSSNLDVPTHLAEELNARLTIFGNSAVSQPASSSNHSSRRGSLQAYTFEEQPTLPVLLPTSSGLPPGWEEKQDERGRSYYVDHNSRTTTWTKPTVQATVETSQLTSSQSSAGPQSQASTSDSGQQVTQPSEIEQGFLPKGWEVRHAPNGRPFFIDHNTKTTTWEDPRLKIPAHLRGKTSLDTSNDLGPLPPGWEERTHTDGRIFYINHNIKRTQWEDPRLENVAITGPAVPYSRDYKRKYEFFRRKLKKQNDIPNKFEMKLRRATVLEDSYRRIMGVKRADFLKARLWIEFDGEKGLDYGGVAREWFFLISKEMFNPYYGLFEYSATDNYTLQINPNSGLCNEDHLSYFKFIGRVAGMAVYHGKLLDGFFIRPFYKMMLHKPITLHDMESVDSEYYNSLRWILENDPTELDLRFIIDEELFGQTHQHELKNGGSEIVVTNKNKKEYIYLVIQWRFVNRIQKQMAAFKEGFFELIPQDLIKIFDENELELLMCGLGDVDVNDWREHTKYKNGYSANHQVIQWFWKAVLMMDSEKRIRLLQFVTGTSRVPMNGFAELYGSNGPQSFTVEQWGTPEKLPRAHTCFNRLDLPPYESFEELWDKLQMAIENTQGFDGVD
UniProt P61081: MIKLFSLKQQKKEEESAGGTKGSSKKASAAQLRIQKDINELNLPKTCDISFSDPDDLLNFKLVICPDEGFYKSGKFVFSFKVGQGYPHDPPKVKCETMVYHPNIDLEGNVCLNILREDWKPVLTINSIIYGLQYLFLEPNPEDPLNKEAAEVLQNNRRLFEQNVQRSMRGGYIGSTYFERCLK
UniProt Q99873: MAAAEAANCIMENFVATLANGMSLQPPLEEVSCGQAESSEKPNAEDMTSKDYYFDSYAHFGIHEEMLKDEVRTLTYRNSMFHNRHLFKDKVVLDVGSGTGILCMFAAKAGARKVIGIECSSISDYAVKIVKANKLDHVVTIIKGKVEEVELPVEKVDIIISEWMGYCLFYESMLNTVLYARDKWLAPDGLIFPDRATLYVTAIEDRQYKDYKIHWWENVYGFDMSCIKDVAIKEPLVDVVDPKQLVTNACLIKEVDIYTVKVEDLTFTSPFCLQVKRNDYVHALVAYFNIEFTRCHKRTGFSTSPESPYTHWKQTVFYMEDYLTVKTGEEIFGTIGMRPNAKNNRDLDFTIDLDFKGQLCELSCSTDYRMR
UniProt Q15843, residues 1-76: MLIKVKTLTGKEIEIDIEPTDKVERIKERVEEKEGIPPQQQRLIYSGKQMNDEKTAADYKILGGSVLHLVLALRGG
UniProt P37231: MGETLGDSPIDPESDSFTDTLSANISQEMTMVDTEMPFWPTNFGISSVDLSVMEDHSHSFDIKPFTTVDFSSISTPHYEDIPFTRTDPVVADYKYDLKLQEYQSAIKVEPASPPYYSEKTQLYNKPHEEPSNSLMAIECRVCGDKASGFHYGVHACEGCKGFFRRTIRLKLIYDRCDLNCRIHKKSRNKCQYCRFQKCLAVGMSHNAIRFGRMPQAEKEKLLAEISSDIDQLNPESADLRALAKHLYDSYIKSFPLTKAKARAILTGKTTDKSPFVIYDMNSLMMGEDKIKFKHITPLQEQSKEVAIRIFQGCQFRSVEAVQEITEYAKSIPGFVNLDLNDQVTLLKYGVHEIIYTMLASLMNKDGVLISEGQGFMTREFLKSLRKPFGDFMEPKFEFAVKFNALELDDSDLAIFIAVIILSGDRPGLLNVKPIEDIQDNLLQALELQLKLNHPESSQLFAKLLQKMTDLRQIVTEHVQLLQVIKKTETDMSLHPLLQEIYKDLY

These are yes or no findings as the source states them, for the method shown. For some of these results: In cells and extracts the contact can be indirect. Some results given as binding are weak or reduced against the parent protein; the word gives no strength.

“NEDD8, endogenous in HK-2 cells (from UniProt Q15843 1-76)”: the figures for the binding entry in experiment [1] and in experiment [2] were “no binding” and “binds”, respectively.

For the substance “Peroxisome proliferator activated receptor γ (PPARγ), endogenous in HK-2 cells (from UniProt P37231 1-505)”, the binding entry in experiment [3] is listed as “binds”.

Turning to “Protein arginine methyltransferase 1 (PRMT1), endogenous in HK-2 cells (from UniProt Q99873 1-371) (enzyme)”, the binding result in experiment [4] is on record as “binds”.

As to “Recombinant human His-UBE2m (from UniProt P61081 1-183) (enzyme)”, the binding entry in experiment [5] is on record as “binds”.

Take “Ubiquitin-conjugating enzyme E2M (UBE2m), endogenous in HK-2 cells (from UniProt P61081 1-183)”: the binding entry in experiment [6] and in experiment [7] was “binds” in each case.

The values are drawn from PMC12313907.
